Experimental data published in the supplement of paper PMC3334620.
Over roughly 33,000 sequences, “E-score (-0.5 to 0.5)” has its median near -0.01; the highest 2% begin near 0.26. The list shows a part of the results.

These sequences were tested against Ste12 (UniProt P13574) (assay: PBM E-score (8-mer binding enrichment) (E-score (-0.5 to 0.5)); higher = stronger / more preferred TF binding; most listed sequences are background and not binding sites). Conditions: protein concentration: 200 nM; construct: GST-DNA-binding domain.
Procedure, shortened: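 For each ungapped eight-base word taken together with its reverse complement, the Universal PBM Analysis Suite assigned an E-score. Binding data came from GST-tagged yeast transcription factors, applied at about 100-200 nM, on universal all-10-mer Agilent arrays made double-stranded by primer extension. Fluorescent anti-GST marked bound protein, and scans were normalised with masliner.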

Sequence | PBM E-score
ATCTCCCA | 0.0349
ATTAGGTA | 0.00656
GCGCCGCA | 0.0532
GAAGTGAA | 0.124
GTCCGCTA | -0.102
AGCGCCCA | -0.0404
ACTAGGTG | -0.199
GGGACGGA | -0.0613
AAGTACGA | 0.0713
CGGAACAG | 0.0291
GAAGCCGC | -0.124
TCCCACCA | -0.171
GACTGCTC | -0.132
CAGGCATA | -0.161
GATAGCAC | -0.122
AGAATCAG | 0.11
ATGTATCA | 0.344
GAGTAATC | -0.0473
GTAAATCA | 0.227
AAAATGTT | 0.139
GCTGGACC | -0.196
AACCGATT | 0.00541
CGAACCAC | 0.089
AGTGCTCC | -0.332
ACTGCATA | 0.0528

Sequence | PBM E-score
CCGCCCAG | -0.00964
GACTGCTA | -0.132
ATTTAGCG | -0.0176
ACCACAAC | 0.136
CCCAGACC | -0.0973
CGAGTCCA | -0.105
GAGCGAAA | 0.251
CTGGGCTC | -0.306
ACTTAACT | 0.0917
CTCGGGCC | 0.0292
CAATGGAC | 0.0147
ACTCGTAT | 0.0337
AGAGACCC | -0.136
GACCGTGC | -0.144
GTGAGCGA | -0.0198
AGGCTGAA | 0.0234
CCGTCTCC | -0.191
CAGGAGCG | -0.0463
AAGGGTGA | 0.0401
CACACTAA | 0.18
GGACTCAA | -0.0497
ATAACGAG | -0.0948
GGAACGCA | 0.0551
GTAACAGA | 0.334
CGTTACAA | 0.314

Sequence | PBM E-score
CACTTAGA | -0.124
CCCGCGAC | -0.0819
AGTTAGCG | 0.0556
CAGTGACA | -0.183
ATATAAAT | 0.279
AACCCAAA | 0.198
ACTAGCTG | -0.0657
GAGCGGCA | -0.0959
CAAGCCCC | 0.0459
ACTAGATC | -0.0559
ATGCGTGG | -0.138
ACCTAACG | -0.137
ATCCGTGA | -0.0469
ATCTAAGG | -0.0459
GACCTCGA | 0.0486
CCCGGCAG | -0.0392
CAAGGATC | -0.0652
AGACCGTA | -0.0932
TTGAACAA | -0.0612
AAAGTGTA | 0.135
TCGCTTAA | 0.0471
CGCCCTAG | 0.00597
CACGTGGA | -0.00567
AACTGTCC | 0.0193
ATGACGCG | 0.146

Sequence | PBM E-score
CTCACTTA | -0.109
ACGAAAGA | 0.125
CTCGTAAA | 0.023
CATGTTTC | 0.4
TGATTGAA | 0.0929
AGGCCCGA | -0.064
ATTTATCA | 0.148
AATCCTGT | 0.102
AAGTCCTC | -0.188
CAAGCTCA | -0.092
AGCGGTGG | -0.167
CGATTATA | 0.0996
ACTTTAAA | 0.275
AGACGTGG | -0.0816
AGTGCTCA | -0.238
AAAGCGGC | 0.054
CTCTCTTA | 0.095
CGAAGTTA | 0.0874
CCTCACCG | -0.0545
CCCCCGAC | 0.00152
ACCGAGGT | -0.144
CGAATAAC | -0.0358
GTGTTCAA | -0.0179
GAGCCAGC | -0.152
TATGAGCA | -0.165

Sequence | PBM E-score
ATAGAGAG | -0.339
TGTTGCAA | 0.211
ACTTTTCC | 0.257
GGTATACC | -0.0247
CACCGAGC | 0.0891
GGGGACCA | -0.0224
AGTGTTCC | -0.0532
CCATGCAC | -0.22
CGTTATTC | 0.00284
AGCATGTA | -0.227
GCTGAGAA | -0.119
CTTATGAC | -0.0278
GAATTCGA | -0.11
ATCGAGGC | -0.0693
AGGAAAAG | 0.147
GTCTGTCA | -0.0514
CCCTCTGA | -0.0968
CATCGTCA | 0.0528
GTGGGCCA | -0.221
GTTCAGCA | -0.0585
ACGCCCGC | -0.0628
AACTTTCG | -0.123
GATGACAC | 0.168
CAACGATG | -0.162
AATGGATA | 0.0132

Sequence | PBM E-score
ACTGTTAA | -0.0538
CTCTAGAG | -0.162
ACAGCTCT | -0.144
AATCTGCG | 0.0584
AACAGTAA | 0.134
ACTAGAGT | -0.103
CCCTTTAC | -0.0978
AAAAAGTA | 0.221
ACACGTGA | 0.00701
TAACTCGA | 0.187
AACTTGTC | 0.0762
CAGTAGCG | -0.0725
CTAGGTAA | -0.177
ACCGCTAG | -0.25
AAACGAGG | 0.123
ACTGCGAC | 0.186
TATATTAA | 0.22
AGATGTAT | 0.056
ACAGAATC | -0.0849
CACCTGCC | 0.0292
GGTCCAAC | -0.0961
AATCGCGG | 0.0746
GACTGAAC | -0.0372
CGTCAGGA | -0.223
GATGTACA | 0.0128

Sequence | PBM E-score
ACCTGGTG | -0.0856
AAAGGAGT | -0.0289
GACGTCGC | -0.148
CATGGGCC | -0.104
AAAACCTT | 0.142
GACAAGAA | 0.0759
CCCAACTC | 0.127
CAAGGTTC | -0.211
GATCGTAA | -0.152
AAAAGATG | 0.127
CAGAACCA | -0.139
CCGAGATC | -0.0305
ATTACAGC | -0.159
AACGCGAT | 0.0153
ATTAGAAT | 0.156
CGCCAGAG | -0.123
CTGCAAAA | 0.0422
ACGCATTG | -0.19
CCCTTCCG | -0.0988
ATATATCC | 0.153
AGGTAGAT | -0.0117
ACCGCGGT | -0.112
GGGTGGAA | -0.0551
GGTCGTAC | -0.112
TATTAAAA | 0.341

Sequence | PBM E-score
GAAGACTC | -0.189
CATTAGGA | -0.00125
GTCCCGAC | 0.0737
ACCGACGA | 0.0741
GTGCTGAA | -0.0853
GGAAGTAC | 0.0207
CTATCCTC | -0.0976
ATATCGGC | -0.0848
TACCAGTA | -0.0789
TCAGCGGA | 0.0108
GTGTGGGA | 0.122
CATTCATC | 0.125
CGAAAACG | 0.0906
CGTCAAAG | -0.00679
CCTTATAA | 0.204
AATATGTG | 0.217
CACAGTCA | -0.168
ACGTACCC | -0.0623
CGTTTCAG | 0.482
AGCATGAG | -0.0759
CATTTACC | 0.127
ACAGTACC | -0.13
ACAACTCG | 0.0864
ATCGAACC | 0.0183
AGGATTAT | -0.0429

Sequence | PBM E-score
CCAAAAGC | 0.0544
CAGGCATC | -0.0695
AGCATACC | -0.0534
AATGATCT | 0.0489
GCCTTATA | 0.0261
CGGATGGA | -0.0501
AGCTCTGA | -0.166
AATAGCAT | -0.0503
AAAGAAAG | 0.19
AGCGACCT | 0.0126
GCTAGTCC | -0.139
AATTCTCA | 0.126
AGACGACC | -0.133
AGGTGGAG | -0.18
CGATGCGA | -0.0673
GAAACAAA | 0.345
CTAGCTAG | -0.23
ACTTTCGC | 0.0806
AACCAGGT | -0.00549
AGGGCCGC | -0.386
GAAGTTCA | 0.0529
AACCGCGC | 0.0907
CGAGTATC | -0.081
ACAGGGGG | -0.0966
AAATGGAT | 0.0735

Sequence | PBM E-score
ATCCCGGA | 0.043
CAACCAGC | -0.171
GCGCCAGC | -0.301
ACGAGCGG | -0.108
GTACGGAC | -0.141
GAATTACC | 0.0501
GGCTGCCC | -0.177
GGCTGATA | 0.126
AGGAGCGC | -0.0491
ATCGTGGC | -0.129
TGCAAAAA | 0.118
GGGGATTA | 0.0663
ATTTCTCG | 0.195
CCGGTTGA | -0.0577
CTCAGCTA | -0.163
AGAAACTA | 0.0653
AGGAACAT | -0.202
TATGAGAA | 0.0646
TGCCGCAA | 0.215
CTCACCAG | -0.0408
ACCAAGTC | -0.208
CGGTGCAA | -0.114
ACGCATGA | 0.0604
CCCCGACA | 0.0523
AATTCCGT | 0.0756

Sequence | PBM E-score
CAATTCAC | 0.00493
TGAGCACA | -0.183
ACGTACCT | -0.174
CCTCACGC | 0.0834
AAGAAGAG | -0.00818
CTCTGGGA | -0.116
AGTCCACC | -0.126
AGTGGGCA | -0.133
CGAGATAC | 0.0175
GTGGTCAA | -0.232
GAAATACA | -0.00127
ACGCGAAC | -0.0367
ACCATGGA | -0.123
GCGTGGAC | -0.0952
CGTGTCTA | 0.036
GCGACGCA | -0.0253
TGTACTAA | 0.053
CTAACTGA | 0.109
CGGGCTAC | -0.239
AGCTTTTA | -0.0867
CGTCCACG | -0.172
CAAGTAGC | -0.0735
ATAATTCG | -0.0149
GATCAATA | 0.0263
CCCTCCAC | -0.0433

Sequence | PBM E-score
CAGCAGGG | -0.0615
CGTCACAC | 0.0677
GATATCCA | 0.159
ATCAAAAA | 0.316
CGTGACTC | -0.2
ACCGCGCG | 0.273
TATCCTGA | 0.0769
ATAAGACG | -0.0172
ATTACCAG | 0.02
ACATCTCA | -0.0976
TTCTAGAA | 0.127
ACAACTGG | -0.0989
ACGGGTCC | -0.178
GACGTTGA | 0.0286
CGGGCCGC | 0.0103
AGCAGGCG | 0.00011
GCACAGGC | -0.173
CAGACGGC | -0.341
TACAAAAA | 0.237
AACATTAG | 0.0988
GCTTTGAA | -0.0635
TGATCCCA | -0.0532
CACTACAG | -0.0202
GGTAACCA | -0.12
CGGAGTAC | -0.215

Sequence | PBM E-score
ATGTAGTC | 0.0246
GACGGGGA | 0.182
CGCGGGCC | 0.0929
CAGATGCC | -0.125
CCATTCAG | 0.037
CGTGGAAC | -0.0152
ATTGTGGA | 0.0744
ACGTGAAC | -0.226
GGATGGGA | 0.0601
CATGGTAC | -0.0268
GCTTGGTA | 0.0107
AGGTCCTA | -0.0988
CATCGGGG | -0.0738
AAAGGCTG | -0.034
CGCACTTA | 0.0975
TCGGTACA | 0.0794
ACGTCAGG | -0.152
CACTTCTA | 0.00316
CTGATCAC | -0.0885
AAGAACGA | 0.0772
CCCGCAGG | 0.00157
TAGTACAA | 0.00627
CCCGTGAG | -0.158
AAAAGCCA | 0.13
CCGTGCAC | -0.129

Sequence | PBM E-score
AAATGCCA | 0.0331
AGAAAGTA | 0.138
GGCGCGAC | 0.227
ACCCACTA | -0.00205
TAGGGTAA | 0.184
ACGTGAAA | 0.323
CGCCATTC | 0.0062
ATCATGAT | 0.0551
CCTCCCCC | -0.134
CATCGAGG | -0.109
AGTGCCCC | -0.2
GTGCTCAA | 0.036
GGTCATAA | 0.0211
ACGTCAAG | -0.222
AAGGCACA | 0.0756
ACAGATAA | 0.166
CTCCGTTA | -0.0784
AATCAATC | 0.116
GATGTTAA | 0.123
